Laboratory results as given in the RNAGym collection of RNA variant scans (doi:10.1073/pnas.2313332121).
This sample is rich in variants without activity.

B1: TPR 5TU (parent)
chain: GGAUCUUCUCGAUCUAACAAAAAAGACAAAUCUGCCACAAAGCUUGAGAGCAUCUUCGGAUGCAGAGGCGGCAGCCUUCGGUGGCGCGAUAGCGCCAACGUUCUCAACUAUGACACGCAAAACGCGUGCUCCGUUGAAUGGAGUUUAUCAUG

Variants of: B1
Experiment: polymerase ribozyme fitness, log enrichment relative to wild type (log ratio); higher = more active; in vitro selection for triplet polymerase activity
How it was run: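 PCR was used to build mutant libraries for each subunit of a heterodimeric triplet polymerase ribozyme, which were then transcribed. A single in vitro selection round, in triplicate, used a frozen incubation at −7 °C and recovered extended constructs by gel excision, streptavidin beads and RT-PCR. Fitness is the logarithm of genotype enrichment relative to wild-type enrichment, averaged over replicates with inverse-variance weights. The logarithm is base 2, and after Illumina sequencing only genotypes with ≥10 input reads and ≥1 read per output were kept.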

Polymerase ribozyme fitness (log ratio), -0.894:
A16C G81A

Polymerase ribozyme fitness (log ratio), -3.78:
A16U C38A C85A

Polymerase ribozyme fitness (log ratio), ≤ -4.2:
A16G G58A C75G G117A
A16U C27U A29C U44G C87A C114U
A16G C51G C75U C87A A122G G140U
A16U A29G A64C G68U C96G A121G U145C
A16G G86U C132U U135G
A16C G50A U139C
A16U G88A U135A G140A
A16C A66U A122C U139A A142U
A16G U134C G136U
A17C A37C A41C U61A G133C G143C
A16C G84U G141C U144A
A17C A20G G25U G48U U53A G67U G94A C95A
A16G C18U U31G C35A C43A C95G C103U
A17C C18U C43U A97G U148A
A16G C35A G59U C75G C93U C99A U101G
A16U U31A G34U G46A G81C A120U
A16G C87A
A16C A41G C43U C103G U139A U148A U151G
A16C G42C C85G A89U C95U G143U
A16C C87G A98G C149A
A16U A20G C32A C103A A113U A122C A138G G140U
A17C A20U A37U U55G G71U G83U A89U
A16U U33G U61A C96U
A17C A23U A40C G86U
A16U U61A G74A C96G
A16U A19U U33G G42C
A16U A17C C43U G48C G100A A115C U145C
A17C C18U C36A A37U G42A A106G C123A
A16C C27A G50C A60G C96U U109G A115C A119C U139G G143C
A16U C36U C43U U61A G92C C103A G117U C149A
A16G C18G A24G A41U C85U
A16C A22U U33C C38G G83A C95U U102G C108U
A16C C51U C87G C118G G133U
A16G A39U G50A C85U C99A
A16C C36G A60C A91C A107G C129U A142U U145A U146C U151C G152A
A16U A106U A107C A138G
A16G A21C G59A U61A G71A A73G C93U C108A
A16C A24C G50C C85U G143U
A16G A29G C43G A52U A91C
A16U A22C A30U U55A C57A C76G G81U G84C
A16U A21C G88C C95A C96A C116U G128A
A16C A26C U44G A60U G80U A91U G128A U145G
A17C A40G C79A U139A
A16U A29U U134A U148A
A17C A21G U56A A73C A91G G94U
A16G U44G G74U U90C A115G
A16U A40G A49U C69A G80A C87G G100U G136A
A17C A20U A37U A60U G74A G128U U135A
A16G C27G G70C C87U A119U G133C G143A
A16U A22C C51U U55A G74A C99G C114A C131U
A16C A49C C103G
A16G A49G U61A G71A U90C G94A A119G
A16U A37U A52C G112U U139A
A16G A23U A29G A37U C43U C79G C99A A122G
A16U A22U C87G C105A
A16U A37C G128U U130C
A16G A20U A24U C93U
A16G C18U A22C A26G A37U C54U G100A A110G
A16G C27A G58C C85A C96G C116U G143C U148A
A17C A21C A22C U33A A47C G84A U127A
A16G C18U A22U A24G C95G C96U C149A
A16G A39U A47C G58A G141U
A17C A29U C72U G81C G140U
A16G A22U C57U G84C C85G C99U C129A G133A G143U
A16U G25U G34C C36G C85U
A16U A52C U90G U139G
A17C A22C G42C U78G G84A C103G C123G
A16C A47C U55A U56A G68U G92U C99A U134G A137C
A16C A40G C85A U111A
A16C U77A G88A G136A
A16C C54U U55G C79U C105U C125A A147G
A16C C79A
A16C G65A G71C U148G
A16C C18A C36A C96A U101G A110C G117A
A16C A40C A66C G70A G84U A89G U127G A150G
A16C C79A A91U C116A C149A

Polymerase ribozyme fitness (log ratio), -3.13:
A16U A37C C63U C95U A119U A122U

Polymerase ribozyme fitness (log ratio), -3.72:
A16U U56A A60U C93U G141U

Polymerase ribozyme fitness (log ratio), -4.05:
A16U G46C G50C G67A G74C C118U U130A

Polymerase ribozyme fitness (log ratio), -1.85:
A16C C87U

Polymerase ribozyme fitness (log ratio), -3.95:
A16U A20U U146A

Polymerase ribozyme fitness (log ratio), -3.8:
A17C A30G C95G
